From PubChem BioAssay (Tox21)
“And” between values parts separate entries of the source, which are not always exact repeats. Equal entries are not always repeated. This list was built around the results that the source calls inconclusive (neither active nor inactive); the mix of calls is not that of the screen. Potencies of inconclusive entries are doubtful fits and often do not repeat. The source holds several records for some structures; these can differ, active in one and inactive in another. The source made the active and inactive calls. Unless noted, calls follow the shape of the dose curve; as a rule, active = well fitted curve in the direction sought with a large enough effect in the repeat runs; inconclusive = weak or mixed curves; inactive = no such curve, though single readings can be large; an effect the other way counts as inactive or inconclusive.

Assays:
[1] = qHTS assay for small molecule agonists of the antioxidant response element (ARE) signaling pathway (AID 743202; active = well fitted activation curve with a large enough effect in the signal ratio in the repeat runs, not every such curve was filed as active; inconclusive = weak or mixed curves, or effect the other way; inactive = no such curve, though single readings can be large or run the other way; the % refers to the signal ratio; as to activation: % is scaled to controls: 0 for no effect and ±100 for the full control effect); conditions: HepG2 ARE-bla reporter, beta-lactamase FRET, 16 h
Outline: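 An ARE-responsive beta-lactamase gene stably integrated in HepG2 cells serves as reporter. After 5 h plating and 16 h compound incubation at 37 C, fluorescence of the B/G FRET substrate was measured.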

[2] = qHTS assay for small molecule activators of the heat shock response signaling pathway (AID 743210; active = well fitted activation curve with a large enough effect in the signal ratio in the repeat runs, with a control signal flat, not every such curve was filed as active; inconclusive = weak or mixed curves; the % refers to the signal ratio); conditions: HeLa HSE-bla reporter, beta-lactamase ratio, 5 h; activation: at 62.6 µM (top of the series) unless noted
Outline: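 In HSE-bla HeLa cells, 5 h compound incubation (37 C) precedes addition of LiveBLAzer B/G substrate; after 2.5 h at room temperature, fluorescence intensity indicates reporter induction.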

[3] = qHTS assay for small molecule agonists of the antioxidant response element (ARE) signaling pathway - cell viability counter screen (AID 743203; calls by dose curve; also: nearly all actives have a fitted effect of over 55% in size; as to viability change, negative = cytotoxic: % is scaled to controls: 0 for no effect and ±100 for the full control effect); conditions: ARE-bla HepG2 viability, CellTiter-Glo luminescence, 16 h; viability change, negative = cytotoxic: at 73.3 µM (top of the series)
Outline: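 Compounds in DMSO were pinned onto ARE-bla HepG2 cells plated 5 hrs earlier at 2,000 cells/well. Sixteen hours later at 37C/5% CO2, CellTiter-Glo was added and luminescence measured after 30 min at room temperature.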

[4] = qHTS assay for small molecule activators of the heat shock response signaling pathway - cell viability counter screen (AID 743209); conditions: HSE-bla HeLa viability, CellTiter-Glo luminescence, 5 h; activity change, negative = cytotoxicity: at 62.6 µM (top of the series) unless noted; also: nearly all actives have a fitted effect of over 50% in size
Outline: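 Counter screen for cytotoxicity in HeLa HSE-bla reporter cells. Treatment was 5 h at 37 C; viability was detected by luminescent ATP assay (CellTiter-Glo) in the same wells as the beta-lactamase read.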

[5] = qHTS assay to identify small molecule antagonists of the peroxisome proliferator-activated receptor delta (PPARd) signaling pathway - cell viability counter screen (AID 743213); conditions: PPARd-bla HEK293H viability, CellTiter-Glo luminescence, 17 h; viability change, negative = cytotoxic: at 62 µM (top of the series) unless noted; also: nearly all actives have a fitted effect of over 50% in size; as to viability change, negative = cytotoxic: % is scaled to controls: 0 for no effect and ±100 for the full control effect
Outline: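 Agonist-stimulated (L165041, 300 nM final) HEK293H PPARd UAS-bla cells are exposed to compounds for 17 h at 37 C, and ATP-based luminescence (CellTiter-Glo) from the same wells reports cytotoxicity.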

[6] = qHTS assay to identify small molecule agonists of the peroxisome proliferator-activated receptor delta (PPARd) signaling pathway - cell viability counter screen (AID 743211); conditions: PPARd-bla HEK293H viability, CellTiter-Glo luminescence, 17 h; activity change, negative = cytotoxicity: at 62.6 µM (top of the series); also: nearly all actives have a fitted effect of over 55% in size
Outline: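 Following 5 h plating at 37 C and 5% CO2, PPARd UAS-bla HEK293H cells took up test compounds for 17 h. Viability was quantified by luminescence 30 min after CellTiter-Glo addition at room temperature.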

[7] = molecular target: Peroxisome proliferator-activated receptor delta (Homo sapiens) (UniProt Q03181); assay: qHTS assay to identify small molecule agonists of the peroxisome proliferator-activated receptor delta (PPARd) signaling pathway (AID 743212; calls by dose curve; as to activation: % is scaled to controls: 0 for no effect and ±100 for the full control effect); conditions: HEK293H PPARd-UAS-bla, beta-lactamase FRET ratio, 17 h; activation: at 62.6 µM (top of the series) unless noted
Chain of UniProt Q03181 (Q03181 whole entry, looked up): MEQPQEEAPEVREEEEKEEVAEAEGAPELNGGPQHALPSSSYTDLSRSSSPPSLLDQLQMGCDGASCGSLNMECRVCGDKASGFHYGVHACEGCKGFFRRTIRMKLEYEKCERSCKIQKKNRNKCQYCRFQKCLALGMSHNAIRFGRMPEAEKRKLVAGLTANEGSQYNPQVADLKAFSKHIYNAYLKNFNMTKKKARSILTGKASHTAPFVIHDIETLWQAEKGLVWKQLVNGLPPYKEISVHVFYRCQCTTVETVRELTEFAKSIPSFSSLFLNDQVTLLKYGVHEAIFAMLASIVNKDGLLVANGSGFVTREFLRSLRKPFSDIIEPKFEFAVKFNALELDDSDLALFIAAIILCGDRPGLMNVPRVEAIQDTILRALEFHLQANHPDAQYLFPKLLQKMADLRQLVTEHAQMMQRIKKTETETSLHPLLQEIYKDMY
Outline: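 HEK293H UAS-bla reporter cells, human PPARd system; compounds delivered in DMSO after 5 h plating, then at 37 C. Beta-lactamase FRET read, 2 h RT substrate step.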

[8] = molecular target: Peroxisome proliferator-activated receptor delta (Homo sapiens) (UniProt Q03181); assay: qHTS assay to identify small molecule antagonists of the peroxisome proliferator-activated receptor delta (PPARd) signaling pathway (AID 743215; active = well fitted inhibition curve with a large enough effect in the signal ratio in the repeat runs, not every such curve was filed as active; inconclusive = weak or mixed curves, or effect the other way; inactive = no such curve, though single readings can be large or run the other way; the % refers to the signal ratio); conditions: HEK293H PPARd-UAS-bla, beta-lactamase FRET ratio, antagonist, 17 h; ratio activity, negative = inhibition: at 62 µM (top of the series) unless noted
Outline: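 With L165041 present at 300 nM final, compounds were incubated 17 h at 37 C on PPARd UAS-bla HEK293H cells. A FRET-based beta-lactamase substrate was then applied for 2 h at room temperature and fluorescence intensity recorded.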

[9] = activation: at 73.3 µM (top of the series) unless noted
Potency is read from the fitted curve at half-maximal effect; tags tell the direction and shape of the fitted curve or compound fluorescence and quenching.

Compound: CC1(C)[C@H](C(=O)O[C@H](C#N)c2cccc(Oc3ccccc3)c2)[C@@H]1C=C(Br)Br
- activation ([1]; at 73.3 µM (top of the series)): inconclusive: -24.9%
- activation ([1]; at 94.8 µM (top of the series)): inconclusive: -17.4%
- Potency [2]: inconclusive: 60.6 µM and inconclusive: 52.9 µM

Compound: C[C@]12CC[C@@H]3c4ccc(OC(=O)N(CCCl)CCCl)cc4CC[C@H]3[C@@H]1CC[C@@H]2O
- activation [1, 9]: inconclusive: 35.4%
- Potency [3]: inconclusive: 26.6 µM [rising, partial curve]
- Potency [4]: inconclusive: 0.0094 µM [cytotoxic, full curve, poor fit]
- Potency [5]: inconclusive: 6.68 µM [cytotoxic, full curve, poor fit]

Compound: S=C=NCCc1ccccc1
- Potency [1, 9]: inconclusive: 77.1 µM [rising, partial curve, poor fit]
- viability change, negative = cytotoxic [3]: inconclusive: -36.7% [cytotoxic]
- Potency [2]: inconclusive: 40.5 µM
- Potency [6]: inconclusive: 55.1 µM [cytotoxic, single point]

Compound: O=c1nc(O)n(Cl)c(=O)n1Cl
- activation [1, 9]: inconclusive: 22%
- activation ([1]; at 73.3 µM (top of the series)): inactive: -3.3% and inactive: -11.1%

Compound: ClC1=C(Cl)[C@]2(Cl)[C@@H]3[C@@H](Cl)[C@H]4O[C@H]4[C@@H]3C1(Cl)C2(Cl)Cl
- Potency [1, 9]: inconclusive: 68.6 µM
- Potency [3]: inconclusive: 61.1 µM [cytotoxic, single point]
- Potency [4]: inconclusive: 54.9 µM [cytotoxic, single point]
- Potency [2]: inconclusive: 58.2 µM

Compound: Sc1ccccc1
- Potency [1, 9]: inconclusive: 68.6 µM [falling, partial curve, poor fit]
- activation [1, 9]: inconclusive: -18.1%
- viability change, negative = cytotoxic [5]: inconclusive: -6.53% [cytotoxic]

Compound: Cc1cc(N=Nc2ccccc2C)ccc1N
- Potency [1, 9]: inconclusive: 1.37 µM and inconclusive: 2.43 µM
- Potency [3]: inconclusive: 68.6 µM [cytotoxic, single point]
- Potency [4]: inconclusive: 61.6 µM [cytotoxic, partial curve, poor fit]
- Potency [2]: inconclusive: 43.6 µM [cytotoxic] and inconclusive: 49 µM [cytotoxic]
- Potency [6]: inconclusive: 54.9 µM [cytotoxic, single point]
- activation [7]: inconclusive: -4.13% and inconclusive: -0.715%
- Potency [5]: inconclusive: 54.9 µM [cytotoxic, partial curve, poor fit]

Compound: COc1cccc(C(=O)CCN[C@@H](C)[C@H](O)c2ccccc2)c1
- Potency [1, 9]: inconclusive: 21.1 µM [falling, partial curve, poor fit]
- Potency [3]: inconclusive: 33.5 µM [cytotoxic, single point]
- Potency [4]: inconclusive: 16.8 µM [cytotoxic]
- Potency [2]: inconclusive: 18.1 µM
- Potency [6]: inconclusive: 26.6 µM [cytotoxic, partial curve]
- Potency [5]: inconclusive: 23.7 µM [cytotoxic, partial curve, poor fit]
- ratio activity, negative = inhibition [8]: inconclusive: -38.1%

Compound: COCC(C)N(C(=O)CCl)c1c(C)csc1C (configuration not stated)
- Potency [1, 9]: active: 4.33 µM
- Potency [3]: inconclusive: 48.6 µM [cytotoxic, partial curve, poor fit]
- Potency [2]: inactive
- activation [7]: inconclusive: -12.9%
- Potency [5]: inconclusive: 49 µM [cytotoxic, partial curve, poor fit]
- Potency [8]: inconclusive: 61.6 µM [rising, single point]

Compound: CCOP(=S)(OCC)Oc1cc(C)nc(C(C)C)n1
- Potency [1, 9]: inconclusive: 48.6 µM [falling, partial curve]
- activation [1, 9]: inconclusive: -9.31%
- Potency [4]: active: 43.6 µM

Compound: FC(Cl)(Cl)C(F)(Cl)Cl
- Potency [1, 9]: inactive
- Potency [3]: inactive
- Potency [4]: inconclusive: 0.0667 µM [rising, full curve, poor fit]

Compound: CSCCCN=C=S
- Potency [1, 9]: inconclusive: 77 µM [rising, single point]
- Potency [3]: inconclusive: 30.6 µM [cytotoxic, partial curve, poor fit]
- Potency [4]: active: 43.6 µM
- Potency [2]: inconclusive: 24.5 µM
- Potency [6]: inconclusive: 61.6 µM [cytotoxic, single point]

Compound: CCCCCCCCCCCCCCC(Br)C(=O)O (configuration not stated)
- Potency [1, 9]: inconclusive: 68.6 µM
- Potency [3]: inconclusive: 68.6 µM [cytotoxic]
- Potency [4]: active: 24.5 µM
- Potency [2]: inconclusive: 23.6 µM
- Potency [6]: inconclusive: 54.9 µM [cytotoxic, single point]
- Potency [7]: active: 13.8 µM
- Potency [5]: inconclusive: 49 µM [cytotoxic, single point]

Compound: O=S(=O)(Oc1ccc(Cl)cc1)c1ccc(Cl)cc1
- activation [1, 9]: inconclusive: 30.6% [at 94.8 µM]
- Potency [3]: inconclusive: 43.3 µM [cytotoxic, partial curve, poor fit]

Compound: Cc1ccc(N(SC(F)(Cl)Cl)S(=O)(=O)N(C)C)cc1
- Potency [1, 9]: inconclusive: 27.3 µM
- Potency [3]: active: 7.7 µM
- Potency [4]: inconclusive: 0.49 µM [cytotoxic, full curve, poor fit]
- Potency [2]: inconclusive: 16.1 µM
- Potency [7]: inconclusive: 4.9 µM [rising, full curve, poor fit]
- Potency [5]: active: 13.8 µM
- Potency [8]: inconclusive: 1.74 µM [rising, full curve, poor fit]
